Data published in the supplement of paper PMC10126150.
Values marked as one replicate rest on one cluster of the flow cell; about a third of the high ones do not repeat.

Test system: ATP
Experiment: switch fluorescence ratio, 500 uM ATP over buffer (Cy3 cluster intensity, sum of 5 cycles each) (fold (ratio)); higher = stronger signal-on switching upon ATP binding; sequences stand for … in TCGTCGGCAGCGTCAGATGTGTATAAGAGACAGTTTTTTTTTTTTTTTTTTTTTTTTT…TC
Conditions: aptamer strand: ATP DNA aptamer (quencher-CACCTGGGGGAGTATTGCGGAGGAAGG + anchor), 100 nM annealed; ATP concentration: 500 uM; one replicate
Method in brief: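 Cy3-labelled switching-strand clusters on a modified Illumina MiSeq flow-cell were annealed to 100 nM quencher-labelled ATP aptamer, imaged in selection buffer, then imaged after 15 min with 500 uM ATP at 22 °C. Five buffer/ATP cycles ran, with NaOH stripping and re-annealing between them. The fluorescence ratio is summed target-cycle over summed buffer-cycle Cy3 intensity per cluster, averaged per switch-domain sequence. Clusters outside 100-1000 RFU were excluded.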
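Further: ATP exposure 15 min at 22 °C before imaging.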

Sequence	switch fluorescence ratio
CGGTTCACGC	1.04
ACTTTTTAGA	1.04
AATAATCGTG	0.994
CTTTATAGAT	0.971
AGTCCATGGG	0.978
AAAAAAGGA	1.01
GGTGGTATTC	0.966
GCACGAGCCT	1.12
GTAAATGGGT	0.955
GACAGAGTAT	1.08
GGGTAGCATA	1.01
GTTGGGAAG	1.01
ACAGGGGTAC	1.06
TATTCTCCTT	1.04
TCTCGGATCT	0.991
ATAAACTTTG	1.05
AAGCTGGCCC	1.03
CGTGGCAGCT	1.02
GATGATAGTA	1.03
TCGATCGCGC	1.82
TGCAGGAGCA	1.01
GGGACAAAA	0.994
TAGGAGGCAT	1.02
TTGTCGGGTC	1
ACAAAAATCG	1.08
CTTACTCTTC	0.969

Sequence	switch fluorescence ratio
CCCCTGCATG	2.25
GACTATCGTG	1.03
CGCTAAATT	1.07
ACAGGAATCA	1.03
AAAGTATCGC	1.03
AAAGCGTATT	0.96
AATTTCTGCC	1.01
TGCTCTCTTC	0.985
TTTACCTTTT	1.03
TTTGTTCCTG	1.05
ATGAGGATTA	0.995
CGAGCGGCCC	1.11
GCATGAGTTC	1.01
TGCCTCAGCA	1.21
TCATAATGCT	0.981
TCTTCCTGTG	1.29
GTAGCTTGAC	1.85
ATTAGTTAGT	0.97
CATTCGGGCG	1.01
GCAGGCCAAG	1.23
GTTCGCCCGA	1
ATTAAAATAA	0.987
TATGTCATGC	1.06
TAGAGGATAA	0.976
GATAGGTAAA	1.02
GATGGGTGGC	0.905

Sequence	switch fluorescence ratio
TCGCTAAGTC	1.11
TCTGTTAGAC	1.17
CACTGTATTT	1.28
GAATGTGGGA	1.01
CGGGGGACAA	1.04
AGTATGCAGA	0.964
AACGCGTTT	1.04
TAAGGTTAAT	0.976
ATCTGGACAC	1.02
AAGGGAGATC	1.01
GTCGGGTTAC	1.03
TGCCAGTTGG	1.03
TTGCGGAAGT	0.994
CAATGGCGCC	0.933
CACGTGTTTT	1.03
TGCCATCACG	1.01
ATCGGCGTC	0.975
ATCGCCGGAA	1.09
AAGTTCTCCT	0.979
CATTTGCATG	0.998
GGAAGCGGCT	1.05
CCTCTAGGTC	2.08
TGCAGTGAAA	0.966
TTTGGGGACC	0.991
CAGGAGCCCT	1.06
AAGTACGTAT	1.12

Sequence	switch fluorescence ratio
TTGGTCTGAG	0.953
TCACGAAGAT	1.03
TATACCCGTT	0.984
GGAAACCACT	1.03
GACATCCTAT	1.03
GTATGGTGT	0.998
GCTCATGTTG	0.984
CGGGTACGCG	0.928
GTTATACAGA	0.925
TCGTAATCT	1.08
ATGCAGTCTG	0.978
TTAGCTCAGC	0.983
CCCAGCCTCG	1.04
TCCGGACATT	1.05
GCTTTCAACG	1.06
GCGCTGCATA	1.14
AGGCTCCGGA	1.07
ATCGGCTGAA	0.995
GCTTGTTCAG	0.965
CGTAAATCTT	1.02
GAGGTGACTT	1.03
CATCGTCTGG	1.02
TGGATAAAGG	1.06
CGCGCACTAG	1.53
CGATGACAAG	0.995
ACGTTTTGGG	0.988

Sequence	switch fluorescence ratio
TAGAACGTGG	0.984
ATCGCTTTTT	0.997
GATGGTTACG	0.974
GCTTTGGTGT	0.983
TCATTGGGGC	0.916
TCCTTATGC	1.1
ACTTTTTGAA	1
GGTCACAGGA	0.985
CCGCAGTGGA	2.76
CGGTCCCGCA	0.99
TCGGTTTCGC	1
AAGGGGCAAC	0.972
ACGCTTACTG	1.46
ATTCAGCGTA	1.01
ATCCCAATAT	3.01
AAACTCCGAG	1.22
GTTAAATGC	1.04
ACATAAGTTC	0.982
CATCGGTTTT	1.08
TAGGCGCCTA	1.01
TCCTACAAA	1.27
GGTTCTTTAT	0.949
AAAGGCGTTC	1.02
AAGCCGATTT	1.01
TCTAGCTCA	1.01
CAATCGGAGC	1.03

Sequence	switch fluorescence ratio
TGCCTATGCG	0.991
TGTGATTTAG	0.98
TGCGGCATGT	0.974
AAAGTTTCTT	1.02
TGCGGGGTC	0.892
AGCCACATG	0.999
GCGTCTCCGC	1.17
ATAAATTTG	0.967
AACTAACTAT	1.07
GCAATTTTAT	1.09
GATACGAGCT	1.07
AGTATTCCCG	0.923
TGGGTACTCG	1.01
CGTGCTGGGC	0.954
AGGTCGGGAC	1.03
CATGCATACC	1.24
TGGATGTGCC	0.911
CTCACGTGGA	1.01
CCCCCGTTGT	2.1
TGGTTGGTAG	1.03
TGAATGTCAT	0.997
CACAATTTTA	0.982
TCGCGCGCCG	0.942
TACCACTCGT	1.01
GGAGTAGCCT	1.03
CAATTTAAC	1.01

Sequence	switch fluorescence ratio
GGGATACCTC	0.973
GTGACCATTT	1.01
ATCCAGATG	1.12
GCCGCCGATC	1.08
ATTGCGGGCG	1.03
AAATGTGGTT	1.01
GAGGGGTGCC	1.09
GCTCAGTTAT	1.09
CTCGTACTAG	0.983
ATGATGTCAA	0.935
CTGGTTAGTA	0.972
ACACGACATA	1.26
CAATTGGCAC	1.06
TATATAGGTG	1.17
GGTGGACACG	1.11
AAAAGTGCCT	1.14
CCCAGCATCG	1.12
TTGGGTACAA	1.02
TGCATGGATA	1.01
CTCGATCAGT	1.01
TGGTGCCTCC	1.08
TATGGGCGGG	0.962
GTTGCTGTTG	0.948
ATCATTTTGT	0.996
TGGTTCCATC	0.992
CGGGACGGTG	1.03

Sequence	switch fluorescence ratio
CGGGGTTAT	1.04
GTTGAAGAGC	0.957
CAGTGCACCT	1.04
CAGTATAGTC	1.01
ATCAATGGTA	0.961
GCGAGAACTC	1.06
GGAGCACG	1.11
CCATACGAGC	1
ATGCATTCCT	1.09
CGCGAGGCGG	1.03
CTGGCAGGAT	0.968
CTCTTTAATA	1.01
AACATACGTA	1.35
TGGACATTGA	0.991
GACGACCCCC	2.09
ACAAAGGGGC	0.994
AGTGAGGGTG	0.999
GATTAAGTTG	0.956
AACTAATCGT	0.996
